The values that follow come from the supplement of paper PMC4967469.

Lines with a small IC50 respond at low doses; fits outside the tested doses are given as limits. The AUC spans the tested range (256-fold, ending at the top dose) of the same fit; the more sensitive the line, the further below 1. For some assays here: Any top dose called inferred was calculated from the reported fits.

What all share (experiment): Viability of human cancer cell lines after 72 h of drug (GDSC screen)
Compound in one assay: COc1cc2nccc(Oc3ccc(NC(=O)C4(C(=O)Nc5ccc(F)cc5)CC4)cc3)c2cc1OC [XL-184]
The following applies: top dose 5.12 µM; top dose inferred. As for the experimental part:
(§1)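 Human cancer cell lines in 384-well plates, medium with 10% serum, drug for 72 h over a 256-fold dose range (nine 2-fold or five 4-fold steps up to the top dose). Adherent lines were fixed and stained with the nucleic acid dye Syto60, suspension lines read with resazurin; signal relative to control wells, capped at 0 and 100%. One two-parameter sigmoid per drug and line, fitted in a mixed model over all curves with the slope shared within a line.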

Compound in another assay: CNCc1ccc(-c2[nH]c3cc(F)cc4c3c2CCNC4=O)cc1 [AG-014699]
The following applies: top dose 5 µM; top dose inferred. As for the experimental part: as §1

Compound in a further assay: COc1cc2ncnc(Nc3ccc(F)c(Cl)c3)c2cc1OCCCN1CCOCC1 [Gefitinib]
The following applies: top dose 0.5 µM. As for the experimental part: as §1

Compound in another assay: N=C(N)NC(=N)NCCc1ccccc1 [Phenformin]
The following applies: top dose 4000 µM; top dose inferred. As for the experimental part: as §1

Compound in a further assay: CCC1=C[C@@H]2CN(C1)Cc1c([nH]c3ccccc13)[C@@](C(=O)OC)(c1cc3c(cc1OC)N(C)[C@H]1[C@@](O)(C(=O)OC)[C@H](OC(C)=O)[C@]4(CC)C=CCN5CC[C@]31[C@@H]54)C2 [Vinorelbine]
The following applies: top dose 0.064 µM; top dose inferred. As for the experimental part:
as §1

Compound in the next assay: COc1cc2ncnc(Nc3cc(Br)c(O)c(Br)c3)c2cc1OC [WHI-P97]
The following applies: top dose 10.24 µM; top dose inferred. As for the experimental part:
as §1

Compound in a further assay: O=c1cc(N2CCOCC2)oc2c(-c3cccc4c3sc3ccccc34)cccc12 [NU-7441]
The following applies: top dose 2 µM; top dose inferred. As for the experimental part:
as §1

Compound in a further assay: O=c1cc(CN2CCOCC2)occ1OCCCCCSc1ccnc2cc(C(F)(F)F)ccc12 [EHT 1864]
The following applies: top dose 10 µM; top dose inferred. As for the experimental part:
as §1

Compound in the next assay: C=CC(=O)Nc1cc(NC(=O)c2ccc(C)c(NC(=O)c3ccno3)c2)cc(C(F)(F)F)c1 [QL-XI-92]
The following applies: top dose 10.24 µM; top dose inferred. As for the experimental part:
as §1

As usually defined, the IC50 is the concentration that gives 50% inhibition. As for NY (osteosarcoma, adherent), the AUC in the assay with XL-184 was 0.988; with AG-014699, 0.955; with Gefitinib, 0.976; with Phenformin, 0.967; with Vinorelbine it was 0.547; with WHI-P97, 0.979. The AUC in the assay with NU-7441 amounted to 0.957; in the assay with EHT 1864, 0.959; with QL-XI-92, 0.989. The IC50 in the assay with XL-184 was above 5.12 µM; in the assay with AG-014699, above 5 µM; in the assay with Gefitinib, above 0.5 µM; in the assay with Phenformin, above 4000 µM; with Vinorelbine, 0.00536 µM; with WHI-P97, above 10.2 µM. Also, the IC50 in the assay with NU-7441 is above 2 µM; with EHT 1864, above 10 µM; with QL-XI-92, above 10.2 µM.
For OAW-42 (ovary, adherent), the AUC was 0.951 with XL-184; 0.957 in the assay with AG-014699; 0.871 in the assay with Gefitinib; 0.78 with Phenformin; 0.824 in the assay with Vinorelbine; 0.959 with WHI-P97. The AUC stood at 0.936 with NU-7441, 0.952 in the assay with EHT 1864 and 0.982 with QL-XI-92. The IC50 is above 5.12 µM with XL-184; above 5 µM in the assay with AG-014699; above 0.5 µM in the assay with Gefitinib; 1790 µM with Phenformin; above 10.2 µM with WHI-P97; above 2 µM in the assay with NU-7441. Besides, the IC50 in the assay with EHT 1864 was above 10 µM; with QL-XI-92 it was above 10.2 µM.
Turning to OCUM-1 (stomach, adherent), the AUC was found to be 0.982 with XL-184; 0.981 in the assay with AG-014699; 0.985 in the assay with Gefitinib; 0.929 with Phenformin; 0.863 with Vinorelbine; 0.986 with WHI-P97. The AUC is 0.983 in the assay with NU-7441, 0.978 with EHT 1864 and 0.987 with QL-XI-92. The IC50 with XL-184 is above 5.12 µM; with AG-014699, above 5 µM; with Gefitinib, above 0.5 µM; with Phenformin, above 4000 µM; with Vinorelbine, above 0.064 µM; with WHI-P97, above 10.2 µM. Besides, the IC50 was above 2 µM with NU-7441, above 10 µM with EHT 1864 and above 10.2 µM with QL-XI-92.
As for OE19 (oesophagus, adherent), the AUC in the assay with XL-184 stood at 0.986; with AG-014699 it was 0.984; with Gefitinib, 0.971; with Phenformin, 0.741; with Vinorelbine, 0.68; with WHI-P97, 0.983. Besides, the AUC is 0.937 with NU-7441, 0.986 with EHT 1864 and 0.986 with QL-XI-92. Further, the IC50 with XL-184 is above 5.12 µM; in the assay with AG-014699 it was above 5 µM; with Gefitinib, above 0.5 µM; with Phenformin it was 1360 µM; in the assay with Vinorelbine, 0.0137 µM; with WHI-P97, above 10.2 µM. Besides, the IC50 in the assay with NU-7441 is above 2 µM; in the assay with EHT 1864 it was above 10 µM; with QL-XI-92 it was above 10.2 µM.
Consider OE21 (oesophagus, adherent), for which the AUC came to 0.961 with XL-184; 0.978 with AG-014699; 0.793 with Gefitinib; 0.834 with Phenformin; 0.517 in the assay with Vinorelbine; 0.92 with WHI-P97. Further, the AUC with NU-7441 was determined as 0.941; with EHT 1864, 0.938; with QL-XI-92, 0.963. For the same cell line, the IC50 was above 5.12 µM in the assay with XL-184; above 5 µM with AG-014699; 0.332 µM in the assay with Gefitinib; above 4000 µM with Phenformin; 0.00454 µM in the assay with Vinorelbine; above 10.2 µM with WHI-P97. The concentration for half-maximal inhibition (IC50) with NU-7441 is above 2 µM; in the assay with EHT 1864, above 10 µM; with QL-XI-92 it was above 10.2 µM.
Turning to OE33 (oesophagus, adherent), the AUC in the assay with XL-184 stood at 0.719; in the assay with AG-014699, 0.969; with Gefitinib, 0.971; with Phenformin, 0.979; with Vinorelbine, 0.684; in the assay with WHI-P97 it was 0.979. The AUC came out at 0.963 with NU-7441, 0.955 with EHT 1864 and 0.974 with QL-XI-92. Further, the IC50 with XL-184 was 1.53 µM; in the assay with AG-014699 it was above 5 µM; with Gefitinib, above 0.5 µM; with Phenformin, above 4000 µM; with Vinorelbine it was 0.0145 µM; with WHI-P97 it was above 10.2 µM. Further, the IC50 is above 2 µM with NU-7441, above 10 µM with EHT 1864 and above 10.2 µM with QL-XI-92.
With OSC-20 (head and neck, adherent), the AUC in the assay with XL-184 came to 0.892; in the assay with AG-014699, 0.919; with Gefitinib it was 0.865; with Phenformin, 0.841; with Vinorelbine, 0.653; with WHI-P97, 0.972. For the same cell line, the AUC in the assay with NU-7441 worked out at 0.955; in the assay with EHT 1864 it was 0.957; with QL-XI-92 it was 0.943. Also, the IC50 with XL-184 was above 5.12 µM; with AG-014699, above 5 µM; with Gefitinib, above 0.5 µM; in the assay with Phenformin, 3570 µM; in the assay with Vinorelbine, 0.0116 µM; with WHI-P97 it was above 10.2 µM. Further, the figures for the IC50 with NU-7441, with EHT 1864 and with QL-XI-92 were above 2 µM, above 10 µM and above 10.2 µM, respectively.
